Experimental data as given in the supplement of paper PMC11417369.
The list shows a part of the results.

The sequences below were run on PF3D7_0420300 AP2 domain 1 (GST-tagged) (assay: gcPBM binding intensity (ln(normalized median fluorescence intensity)); higher = stronger DNA binding).
Procedure, shortened: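 DNA-binding domains from P. falciparum, fused to GST and produced in E. coli, were put on an Agilent 4 × 180k double-stranded probe array for 1 h in 1× PBS holding 1% milk, 0.2 mg/ml BSA, 0.5% salmon testes DNA and 0.03% Triton X-100. Probes were primer-extended, 36 bp long and drawn from intergenic genomic regions, with negative controls included. After Alexa488 anti-GST antibody detection and a 488 nm scan, binding intensity was set as the highest Masliner-normalised natural-log median intensity across replicate spots of either probe orientation.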

Sequence	gcPBM binding intensity (ln)
TGTTCCGAAGGTTGTACACACATAGAAATATACATA [CACACA_site3874]	9.44
TTTTTAAAACCTTACATACACACAAATATATATATA [CACACA_site678]	9.4
TCTTGTATACGGCATGCATGTTAGCACATACGGACA [TGCATGCA_site146]	9.21
AATACTTTTTATTTAGTGCATAAGAAAATATAAATC [GTGCAC_site9875]	9.17
TATAAAATATGTATGAGGAATAAAATTAAAAAAAAA [TGCATGCA_negctrl_site178]	9.25
AAAAAAAAAAATTCGGTGCAATGTAATTAATGTAAA [GTGCAC_site9588]	9.41
AATTGAAAAATCAGCACACACACAAATACATACATA [CACACA_site3232]	9.92
TGGTAATACACATACACACACACATACACATATATA [CACACA_site7312]	10.2
GCTATATATTACAATCGTACAATATATATATATATA [XGTACX_site6730]	9.33
ATATATATATATATTACACACATGTGCAATTAAAAT [CACACA_site1778]	9.62
AATATAAGAATATATACACACATAAATACATACATA [CACACA_site4128]	9.94
GACATTAAAATGAAATATACATATATATGTATATAT [TGCATGCA_negctrl_site601]	9.1
AAACAAAAAAACTACAGTACTTTTTTCAATTCCCCT [XGTACX_site7541]	9.24
AAAATTAACCGTAACACACACACATATATATATATA [CACACA_site3964]	9.91
TATATGTTTACTTAATGTACTTACATTTTTATAACA [XGTACX_site1100]	9.24
ACATAAATAATAAAAACACACATATGTACTTATATA [CACACA_site8581]	9.59
TTATTAATTTTTATTTTTAAATCACAAAAGATATAA [CACACA_negctrl_site787]	8.69
CATATTTGTATATGCACACATAAATTTTTCCATTTC [CACACA_site3467]	9.33
AAATTTTTAAACAGCACACATAAATATAATATATAT [CACACA_site2208]	9.5
TTTTTTTTTAATTATGCATGTAAATTATATATTATA [TGCATGCA_site335]	9.1
AATAAACATATATGTACACACATATACATATATATA [CACACA_site2848]	9.51
TATTTATAATTAAATACACACATATATTATATATTT [CACACA_site616]	9.37

Sequence	gcPBM binding intensity (ln)
TATACGCATATATAAACACACAAAAAAAAAAAAAAA [CACACA_site2026]	9.19
TTAGCTACACGCTAATGTACACAAATACAAAGAAAA [XGTACX_site3993]	9.09
TATATTAATTTATATCAACACACAAAATCAATATAC [CACACA_site8518]	9.62
ATAAAATATTATATATATATATATATATATATATAT [CACACA_negctrl_site215]	8.94
AAATTATTTATATGTTGTACTTATCCATTTTTATAA [XGTACX_site7441]	9.33
TATATTTATAGACACACACACAAAAAAAAAAAAAAA [CACACA_site6818]	9.75
TAATTTTTTTTATTATGTACTTAATAAATGTTAATT [XGTACX_site365]	9.15
CCTTTATAAAAAAGTAGTACACAATGAATTTATAAT [XGTACX_site5523]	9.26
CAATACTAATTGTATACACACAAAAATATACCATAT [CACACA_site3326]	9.7
AATTGATACCTTACATGTACATAATATATATAAATA [XGTACX_site321]	9.23
TTTTTACATACAAATTAACACACATATAGAAAAGAG [CACACA_site8570]	9.58
GAACCATTTTTTGGTATACACACGTAATTATATAAT [CACACA_site8552]	9.31
TGTTAATTAAAACATCATTAATATTATTAAAAATAC [XGTACX_negctrl_site509]	8.99
TCTTTTTTTACTTTCTTTTTTTTTTTTTTTTTTTTT [XGTACX_negctrl_site610]	9.11
CCTTATAAATACTGCACACATAAAATATATATTATC [CACACA_site2806]	9.5
TTTGTTCATATGAAATGTACAAAAAAAAAAAAAAAA [XGTACX_site8849]	8.5
TTTTATCGTTTTTTTTTTTTTTTTTTTTTTTTTTTT [CACACA_negctrl_site1309]	9.28
ATGTAGAAGTAATGCACACATATGTATTTATATATA [CACACA_site5391]	9.4
AAAAAAATTAATATGTCAGCACATATATACATACAT [GTGCAC_negctrl_site110]	9.39
TATATATATAAAAAAGCACACATACATACATACATA [CACACA_site8196]	9.76
ATAAACGTTTTTGAAAGTACATATCATTCATTTGAT [XGTACX_site200]	9.18
ATATAATATTTATATGTACACACCTTAATCCTTAAA [CACACA_site3555]	9.28

Sequence	gcPBM binding intensity (ln)
TTTTAACATATAAGTACACACATATAATCAATCATA [CACACA_site2325]	9.53
TGAATATATAAATATGCACACTTCTATTATAAATAA [CACACA_site5796]	9.13
TAACATATAAGTGTGTGTACGTACTGCGTATAATAT [XGTACX_site8597]	9.8
GACAAACAATATGAATGTACATAAAAATATAACTAA [XGTACX_site1167]	9.34
TGAAGAATATTTTTCACACATATATATATATATATA [CACACA_site6080]	9.06
TATATATATAATTAAGCATGCTAGAAACCTTTGAAA [TGCATGCA_site489]	9.19
TACAATCTAAAATACACACGCACACCGAAAAAAAAA [CACACA_site3520]	9.78
ATATATATATATATATGTACATATTTTTGTTTGATG [XGTACX_site51]	9.08
CAGATATTCATATAAACACACATACAAATTATGTAT [CACACA_site4258]	9.45
ATATATATATATATTGCACACACAATTATTATTATT [CACACA_site8721]	9.58
GAGAAAAGGAAATAACGTACACATATGCATATCCAA [XGTACX_site5858]	9.48
TGAAAGAAGCATAAATGTACACACATATTTATATAT [XGTACX_site2645]	9.55
TATTTATTGTGACACTTTTATTATTTTATGATAAAA [CACACA_negctrl_site37]	9.06
GTGTTCTTGTTATACACACACATATATATATATATA [CACACA_site1032]	9.78
GTAATATTTTATAGTAGTACATATTTTTATTATTTT [XGTACX_site3333]	9.3
GAGAGGTCAGTTCACAGTACCCAGAAACTCTACGAG [XGTACX_site2559]	8.86
AATATTTATTTAATTTCACACAGGTCTTTTTTTTTT [CACACA_site5188]	9.48
TTGTTCTTATTTCATTTTTATATGATATTTCATTAT [CACACA_negctrl_site1619]	9.52
TGTTGTTCCAATTTTTGTACATAAAACATATATATA [XGTACX_site5719]	9.3
AAAAAAAAAAAAAATTGTACATTAAATTAAAAGAAA [XGTACX_site8708]	8.92
AAGAAAATATAAAATGCACACTATAAATTGTATATA [CACACA_site7928]	9.51
AAAAAAAAAAATACTTGTACTTATATAATATATTAT [XGTACX_site8333]	8.97

Sequence	gcPBM binding intensity (ln)
ACATAAATAATAAAAACACACATATGTACCTATATA [CACACA_site6982]	9.69
AAATTATTTCTTTGCGCATGTAGCTTTTATACTATT [TGCATGCA_site819]	9.51
AATACATGCTAAAAACGTACACGTATAAAATTATAT [XGTACX_site3169]	9.35
TTTTTTTTTTTGGCTAGTACATATGTATTTAAAATG [XGTACX_site7770]	9.1
GGTGAAATTATTTCTACATGCAGAAATAATTAATTA [TGCATGCA_site194]	8.93
AATTTAATATAATGCACACATAAAAAAAAAATCAAA [CACACA_site1]	9.41
CGCACACGCAGACACACACACACATATAAATAAATA [CACACA_site7101]	9.86
AAAAAAAAGAAAAAAAAAAAAAAAAAAAAAAAAAAA [CACACA_negctrl_site489]	8.7
TACATTCTAATAATTGCACACTGGTTATTAAAAGGA [CACACA_site1614]	9.13
TTTTTATTTATATTTCATTGAAGTTAAATTATTTTA [XGTACX_negctrl_site575]	8.95
TTTTATCAATAAATTCGTACACATGAACTAGAGAGT [XGTACX_site5758]	9.31
ATTAGTATATTTCTCTGTACTTACATTAAAATATAA [XGTACX_site2217]	9.1
AATTTAATATTCATCTCTAAAGCTATAACAATTACT [CACACA_negctrl_site1079]	9.14
TCCTTAAAATATGGTTGTACGTACATCCTAGGTGTT [XGTACX_site7068]	9.11
TCTGAAAATTAGAAAAGTACAAAATGGTATAGGAAA [XGTACX_site4396]	9.36
ATACAAATTTATATTTCACACATTATTATATACTTA [CACACA_site6034]	9.6
ATATATATATATAAATGTACAGGCTTATCTCTTATT [XGTACX_site1828]	9.37
TGTATTATATATGTGTGTACATATTTTTTTTTTTTT [XGTACX_site3351]	9.4
AAATTATTTCAAATGTTGCACTAAAAATAAAATTAT [GTGCAC_site9460]	8.94
AGAAAGGATATTATATGTACATATCTTTGTATTTTT [XGTACX_site5040]	9.36
CATACCCATAAACACACACACATATATACCTATATA [CACACA_site4745]	10
TAGTATGATAACTTGGGTACATAAATATGGAGTATC [XGTACX_site1296]	9.46
